Entries after “also recorded” stand apart in the source; their conditions may differ.

One data set deals with T1, MERTK (Homo sapiens, UniProt Q12866).
T1 sequence (Q12866 21-999): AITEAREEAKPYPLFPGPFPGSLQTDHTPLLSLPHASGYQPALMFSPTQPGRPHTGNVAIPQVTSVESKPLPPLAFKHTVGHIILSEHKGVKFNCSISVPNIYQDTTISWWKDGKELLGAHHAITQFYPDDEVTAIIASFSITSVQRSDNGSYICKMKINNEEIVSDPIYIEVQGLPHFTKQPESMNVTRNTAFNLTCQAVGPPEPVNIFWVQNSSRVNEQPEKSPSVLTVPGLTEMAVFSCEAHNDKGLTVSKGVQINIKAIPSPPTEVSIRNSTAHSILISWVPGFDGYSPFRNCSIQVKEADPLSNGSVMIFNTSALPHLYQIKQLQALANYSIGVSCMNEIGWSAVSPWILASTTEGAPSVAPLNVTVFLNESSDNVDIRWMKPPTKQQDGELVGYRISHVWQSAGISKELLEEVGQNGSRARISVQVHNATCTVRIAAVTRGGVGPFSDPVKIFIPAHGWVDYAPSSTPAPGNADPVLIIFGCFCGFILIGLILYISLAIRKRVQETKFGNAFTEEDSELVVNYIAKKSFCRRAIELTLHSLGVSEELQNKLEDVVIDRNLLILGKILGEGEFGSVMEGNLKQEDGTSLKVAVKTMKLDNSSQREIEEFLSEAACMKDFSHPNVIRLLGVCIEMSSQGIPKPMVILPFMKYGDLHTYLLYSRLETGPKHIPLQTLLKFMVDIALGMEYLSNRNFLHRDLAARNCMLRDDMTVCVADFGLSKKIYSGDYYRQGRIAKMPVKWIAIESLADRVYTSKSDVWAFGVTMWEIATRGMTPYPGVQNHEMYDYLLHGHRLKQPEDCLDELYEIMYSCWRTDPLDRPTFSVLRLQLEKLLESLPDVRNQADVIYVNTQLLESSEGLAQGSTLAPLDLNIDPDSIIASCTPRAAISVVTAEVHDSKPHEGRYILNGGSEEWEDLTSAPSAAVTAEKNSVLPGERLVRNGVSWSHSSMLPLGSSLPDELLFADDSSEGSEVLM
The experiment in a line: Internalization assay of z10 and ADCs (pHrodo, surface MERTK by flow cytometry). The data set is classed as cell-based. Also on record: stained with BV421-conjugated antibodies against MERTK to detect surface MERTK levels; endogenous in cells; host or cells: SKMEL5 human melanoma cells. Conditions: SKMel5 cells. As for the experimental part:
Internalization of the antibody was determined by flow cytometry detecting pHrodo fluorescence, which is minimal at neutral pH and maximal in acidic environments, such as the lysosome.
The cells were trypsinized, strained through a 70 μm filter, and resuspended in FACS buffer (2% BSA, 10 mM EDTA, 25 mM HEPES, 0.1% sodium azide in Ca/Mg-free PBS) containing Human TruStain FcX blocking reagent (Biolegend, 422301). Cells were sequentially stained with BV421-conjugated antibodies against MERTK to detect surface MERTK levels (Biolegend, 367603) for 20 min on ice, and then stained with Fixable Viability Dye (eFluor 780) (Thermofisher, 65-0865-14) for 20 min on ice.
The Mean Fluorescence Intensities (MFI) of pHrodo and BV-421 were analyzed with LSRFortessa flow cytometer (BD Biosciences) and compensated data were plotted with GraphPad Prism. The MFI of pHrodo was normalized with Degree of Labeling (DOL) of pHrodo-labeled IgG, z10, z10-MMAE and z10-SN-38. DOL was calculated from A280 and A560 absorbance of the protein after labeling, according to the formula provided by the manufacturer.
(Flow cytometry measures light scatter and fluorescence of single cells or particles in a stream.)

Data set [1] deals with MDA-MB-231-LM2 TNBC cells. Description: Metastasis assay, z10 naked antibody. The data set is classed as in vivo. Conditions: 50,000 cells into tail vein of NSG mice; twice/week i.p. from day of inoculation. As for the experimental part:
MDA-MB-231 LM2 TR triple negative breast cancer cells (received from Prof. Sohail Tavazoie, Rockefeller University, NYC) harboring a luciferase reporter gene (Minn et al., Nature. 2005 Jul. 28; 436(7050): 518-524) were cultured in D10F culture medium (DMEM Life Technologies, 11965-092), 10% FBS (Sigma, F4135-500 ml), 1% NEAA (Fisher, 11140-050), 1% sodium pyruvate (Fisher, 11360-070), 1% Hepes (Fisher, 15630-080) and 1% Pen/Strep (Fisher, 15140-122). On the day of injection, cells were washed with DPBS (Fisher, 14190-144) and detached using 3 mL of 0.25% Trypsin-EDTA (Fisher, 25200-056) per 15 cm cell culture dish for 5 min in a 37° C. cell culture incubator. Detached cells were resuspended in 5 mL of D10F, counted using a hemocytometer and centrifuged at 220×g for 5 min at room temperature. The pellet was resuspended in DPBS at a concentration of 500,000 cells/mL. 8-week-old NSG female mice (Jackson, 005557) were exposed to a small animal heat lamp (Morganville Scientific, HL0100) for 2-3 minutes. 100 μl of the cell suspension (50'000 cells) was injected into the dilated lateral tail vein of female 8-week old NSG mice. […] Lung colonization was monitored using IVIS imaging upon i.p. administration of 150 mg/kg D-luciferin (Thermofisher Scientific, Waltham, Mass.). […] Mann-Whitney U-test, one tailed was used to assess significance of the metastasis as measured by bioluminescence imaging.

Data set [2] has as its system MERTK-expressing M1 macrophages.

B1: z10: humanized anti-MERTK antibody; heavy chain SEQ ID NO: 112, light chain SEQ ID NO: 113 (antibody)
heavy: QVQLVQSGAEVKKPGASVKVSCKASGYTFTNYGMNWVRQAPGQGLEWMGWINTYTGEPTYADDFKGRVTFTTDTSTSTAYMELRSLRSDDMAVYYCARKSTVVSRYFDVWGQGTTVTVSSASTKGPSVFPLAPSSKSTSGGTAALGCLVKDYFPEPVTVSWNSGALTSGVHTFPAVLQSSGLYSLSSVVTVPSSSLGTQTYICNVNHKPSNTKVDKRV[human IgG1 Fc omitted]
light: DIQMTQSPSFLSASVGDRVTITCKASQDVGDAVTWYQQKPGKAPKLLIYWASTRHTGVPDRFSGSGSGTDFTLTISSLQPEDFATYYCQQYRSYPLTFGQGTKLEIKRTVAAPSVFIFPPSDEQLKSGTASVVCLLNNFYPREAKVQWKVDNALQSGNSQESVTEQDSKDSTYSLSSTLTLSKADYEKHKVYACEVTHQGLSSPVTKSFNRGEC
modifications: Antibody z10 Heavy Chain; Antibody z10/z11/z13 Light Chain
For the molecule B1, the MERTK internalization entry with MERTK (6.7 nM pHrodo-labeled article) was “induce MERTK internalization”. Moreover, in the data set with MERTK (6.7 nM, surface MERTK stained with BV421-conjugated MERTK antibody), the MERTK degradation result was “degrade MERTK to a similar extent; also recorded: induce MERTK degradation”. In addition, the “tumor (lung colonization, IVIS imaging)” value in data set [1] was “tumor reduction”. Besides, the “viability of M1 macrophages (CellTiter-Glo 2.0)” value in data set [2] is recorded as “neither z10 nor z10-MMAE nor z10-SN-38 nor the MERTK inhibitor UNC1062 affect the viability”.

(Values after patent US11242407B2, “High-affinity anti-MERTK antibodies and uses thereof” (Rgenix, Inc., priority 2019, dated 2022).)
